# Laboratory results reported in PubChem BioAssay AID686978 (National Center for Advancing Translational Sciences (NCATS), 2013).
# The whole screen tested about 420,000 compounds, of which about 64,000 (15%) were called active. Inconclusive results, whose numbers are uncertain, are shown with a selection of clear calls. Calls follow the shape of the dose curve; as a rule, active = well fitted inhibition curve with a large enough effect; inconclusive = small, poorly fitted or top-dose-only effect; inactive = flat fitted curve, though single readings scatter. Potencies of inconclusive entries are left out as doubtful fits.
# Assay: qHTS for Inhibitors of human tyrosyl-DNA phosphodiesterase 1 (TDP1): qHTS in cells in absence of CPT; also: nearly all actives have a fitted effect of over 55% in size
# Conditions: DT40 Tdp1-/- hTDP1 cells, no CPT, ATP luminescence, 48 h; activity change, negative = growth inhibition: at 46.2 µM (top of the series) unless noted
# In short: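 Readout: luminescence from CellTiter-Glo after 30 min in the dark at RT. Cells: DT40 Tdp1-/- with stable hTDP1, 400/well. Exposure: compounds alone, ≥48 hr, 37 °C.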
# % is scaled to controls: 0 for no effect and ±100 for the full control effect; potency is read from the fitted curve at half-maximal effect; tags tell the direction and shape of the fitted curve.
SMILES,Potency,"activity change, negative = growth inhibition"
Cc1cccc(C(=O)Nc2ccccc2C(=O)OCc2c(C)noc2C)c1,"inconclusive [inhibitor, single point]",–
O=C(CSC1=NCCS1)NC1CCCC1,inactive,–
COc1ccccc1C(=O)NC(=O)COC(=O)C1CC1C (centres undefined),inactive,–
Cc1nc(NCc2ccc3nsnc3c2)sc1-c1ccn(C)n1,"inconclusive [inhibitor, single point]",–
COC(=O)c1ccc(Cn2c(O)c(N=NC(N)=S)c3ccccc32)o1,"inconclusive [inhibitor, single point]",–
Cc1nnnn1/C(=C\c1ccccc1)C(=O)OCC(=O)N(C)C1CCS(=O)(=O)C1 (centres undefined),inactive,–
CCN(CC(=O)Nc1c(F)cccc1F)C(=O)CCCOc1ccc(OC)cc1,inactive,–
O=C(C[C@@H]1C/C=C\C[C@H](Cc2ccc(F)cc2)C(=O)OCCNC1=O)N[C@H](CO)Cc1ccccc1,active: 16.4 µM,–
COc1ccc(C2C(=O)N(C3CCCCCC3)CC(=O)N2CCc2ccc(OC)c(OC)c2)cc1 (centres undefined),"inconclusive [inhibitor, single point]",–
CCOc1ccccc1N=CC1=C(O)CC(c2ccccc2)CC1=O (centres undefined),"inconclusive [inhibitor, single point]",–
CCc1ccc(NC(=O)c2ccc3c(=O)n4c(nc3c2)CCCCC4)cc1,"inconclusive [inhibitor, single point]",–
O=C(CCCC(=O)NN=Cc1ccc(Cl)cc1Cl)NN=Cc1ccc(Cl)cc1Cl,"inconclusive [inhibitor, single point]",–
COCCCn1c(SCC(=O)Nc2ccccc2OC)nc2c(sc3ccccc32)c1=O,active: 25.9 µM,–
COc1cc(-c2ccc3cc(OC)c(OC)c(OC)c3c2)cc(OC)c1OC,"inconclusive [inhibitor, single point]",–
Cc1nc2ccccn2c1C(=O)NNS(=O)(=O)c1ccc(C(C)(C)C)cc1,active: 6.51 µM,–
COC(=O)c1ccc(NC(=O)CC2C(=O)N(c3ccc(C)cc3)C(=O)N2CC(C)C)cc1 (centres undefined),"inconclusive [inhibitor, partial curve, poor fit]",–
CCN(CC)c1ccc(NC(=O)CCc2nnc3ccc(N4CCCCC4)nn23)c(C)c1,"inconclusive [inhibitor, single point]",–
CC(=O)C1=C(C)Nc2ncnn2C1c1ccc(O)cc1 (centres undefined),inactive,–
COc1ccc(C(=O)Nc2ccncc2)cc1[N+](=O)[O-],inactive,–
CCCCCC(=O)NNC(=S)NC(=O)c1ccc([N+](=O)[O-])cc1,"inconclusive [inhibitor, single point]",–
O=C(O)C1CCCCN1C(=O)c1ccc(S(=O)(=O)N2CCCCCC2)cc1 (centres undefined),inactive,–
COC(=O)c1ccc(OC)c(Cn2c(=O)n(-c3cccc(Cl)c3)c(=O)c3c4c(sc32)CN(C(C)=O)CC4)c1,inactive,–
Cc1ccccc1-c1ccc2ncnc(NCc3cccnc3)c2c1,"inconclusive [inhibitor, single point]",–

SMILES,Potency,"activity change, negative = growth inhibition"
CC(c1n[nH]c(=S)n1-c1ccc(F)cc1)N1CCCCC1 (centres undefined),inactive,–
CCOc1ccc(CNC(=O)C2CCN(C(=O)N3CC(C)Oc4ccccc43)CC2)cc1 (centres undefined),"inconclusive [inhibitor, single point]",–
CCOC(=O)C1CCCN(C(=O)Cn2ncn3c(cc4sc(CC)cc43)c2=O)C1 (centres undefined),"inconclusive [inhibitor, single point]",–
CCOc1ccc(S(=O)(=O)N(CC)CC)cc1NC(=O)CSCc1c(C)noc1C,"inconclusive [inhibitor, single point]",–
CCCCNC(=O)COC(=O)c1ccc(N(C)C)cc1,"inconclusive [inhibitor, single point]",–
COc1ccc(-c2csc3ncnc(N4CCN(c5ccccc5)CC4)c23)cc1,"inconclusive [inhibitor, single point]",–
CCc1noc(C)c1C(=O)Nc1nc(-c2ccc(OC)cc2)cs1,active: 13 µM,–
CCCn1c(SCC(=O)Nc2nc3ccccc3s2)nc2c1c(=O)n(C)c(=O)n2C,active: 23.1 µM,–
N#CCC(CNc1ncc(C(F)(F)F)cc1Cl)OC(=O)c1cccc([N+](=O)[O-])c1 (centres undefined),"inconclusive [inhibitor, partial curve, poor fit]",–
COC(=O)COc1ccc(C2NC(=O)NC(c3ccccc3)=C2C(C)=O)cc1OC (centres undefined),inactive,–
O=C(Nc1cccc(Cl)c1)OCCOc1ccccc1,"inconclusive [inhibitor, single point]",–
COc1cccc(/C=N/n2c(SC)nnc2-c2ccccc2)c1OC,"inconclusive [inhibitor, single point]",–
CCC(C)NC(=O)c1[nH]c2cc(C)ccc2c1Sc1ccc(Cl)cc1 (centres undefined),"inconclusive [inhibitor, single point]",–
COc1ccc(CCNC(=O)CCc2cn(Cc3ccc(C)cc3)c3ccccc23)c(OC)c1OC,"inconclusive [inhibitor, single point]",–
Cc1cccc(OCc2nnc(N)s2)c1,"inconclusive [inhibitor, single point]",–
CCOC(=O)c1cccc(NC(=O)C2CCCN(S(=O)(=O)c3c(C)nn(C)c3C)C2)c1 (centres undefined),"inconclusive [inhibitor, single point]",–
CC(C)c1ccc(-n2cccc2/C=C2/C(=N)N3C=CSC3=NC2=O)cc1,"inconclusive [inhibitor, partial curve, poor fit]",–
Cn1c(-c2ccccc2)cnc1NCc1cc(Cl)ccc1O,inactive,–
CCn1c(=NC(=O)c2cccc(N3C(=O)CCC3=O)c2)sc2c(C)ccc(OC)c21,inactive,–
O=c1[nH]c(COc2ccccc2)nc2ccccc12,"inconclusive [inhibitor, single point]",–
NS(=O)(=O)c1ccc(N/N=C/c2ccc(O)c(O)c2O)c([N+](=O)[O-])c1,"inconclusive [inhibitor, single point]",–
COc1ccc(-c2noc(N3CCC(C(=O)N(C)c4cc(Cl)ccc4OC)CC3)n2)cc1,"inconclusive [inhibitor, single point]",–
Cc1ccc2nc(CSc3nnc(-c4ccco4)n3-c3ccccc3)cc(=O)n2c1,"inconclusive [inhibitor, partial curve]",–

SMILES,Potency,"activity change, negative = growth inhibition"
Brc1ccc(-c2nnc3ccc(N4CCN(c5ccccc5)CC4)nn23)cc1,"inconclusive [inhibitor, partial curve]",–
CN(CC(=O)Nc1ccccc1Cl)C(=O)c1ccc(-c2cccc(C(F)(F)F)c2)o1,"inconclusive [inhibitor, single point]",–
Clc1cccc(CNc2ccn3nc(-c4cccc(OCc5ccccc5)c4)cc3n2)c1,"inconclusive [inhibitor, single point]",–
CCN(CC)S(=O)(=O)c1ccc(N2CCOCC2)c(NC(=O)C2CSC3(C)CCC(=O)N23)c1 (centres undefined),"inconclusive [inhibitor, single point]",–
COc1ccc2c(CNCCc3cccs3)c(C(=O)O)n(Cc3ccccc3C)c2c1,active: 5.17 µM,–
O=C(O)Cc1ccc(NC(=O)c2ccc(NC(=O)C3CC3)cc2)cc1,inactive,–
COc1ccc(-c2nc3c(-c4ccc(Cl)cc4)cnn3cc2C)cc1F,"inconclusive [inhibitor, partial curve]",–
Cc1cc2oc(=O)cc(CN3CCc4ccccc43)c2cc1Cl,"inconclusive [inhibitor, single point]",–
COC(=O)c1c(C)[nH]c(/C=N/Nc2ccccc2)c1C,inactive,–
Cc1cccc(C)c1OCC(=O)Nc1c(C(=O)c2ccc(Br)cc2)oc2ccccc12,"inconclusive [inhibitor, partial curve, poor fit]",–
CCNc1nc(OCCNS(=O)(=O)c2cc(C)ccc2C)nc(N(C)C)n1,"inconclusive [inhibitor, single point]",–
Cc1ccc(-n2c(C)cc(C(=O)COC(=O)c3ccc[nH]c3=O)c2C)cc1,–,inconclusive: -20.6% [inhibitor]
C/C(CC(=O)Nc1ccc2c(c1)OCCO2)=N\NC(=O)COc1ccc(Cl)c(C)c1,inactive,–
Cc1ccc(F)cc1NC(=O)N1CCN(c2ccnc3cc(Cl)ccc23)CC1,"inconclusive [inhibitor, single point]",–
COc1ccccc1N(C)S(=O)(=O)c1ccc(C(=O)Nc2nc(C)cs2)cc1,active: 0.651 µM,–
O=S1(=O)N=C(N(CCO)/N=C/c2ccc(Cl)cc2)c2ccccc21,"inconclusive [inhibitor, single point]",–
Cc1csc2ncnc(N3CCN(S(=O)(=O)c4cccc(C(F)(F)F)c4)CC3)c12,active: 3.66 µM,–
CCCC(=O)N1CCc2cc(OC)c(OC)cc2C1c1cc2cc3c(cc2[nH]c1=O)OCO3 (centres undefined),inactive,–
CCCn1c2ccccc2c2cnn(CC(=O)N(Cc3ccccc3)C(C)C)c(=O)c21,active: 18.4 µM,–
Clc1ccc2nc(CSCc3ccccc3)cn2c1,"inconclusive [inhibitor, single point]",–
O=C(CSc1nnc(NC(=O)C2CC(=O)N(c3ccccc3)C2)s1)NC1CCCC1 (centres undefined),inactive,–
O=C(NC(=S)Nc1ccc(N2CCCC2)cc1)c1ccc(F)cc1,inactive,–
CCCOc1ccc(-c2nc(N3CCC(C)CC3)c3ccccc3n2)cc1,"inconclusive [inhibitor, single point]",–
